# In patent publication US20230310557A1:
# Target: CD79b on target cells (JEKO, OCY-LY3, BJAB, WSU-DLCL2) (human) (UniProt P40259)
# Experiment: cell-based or functional assay
# UniProt P40259, sequence (P40259 29-229): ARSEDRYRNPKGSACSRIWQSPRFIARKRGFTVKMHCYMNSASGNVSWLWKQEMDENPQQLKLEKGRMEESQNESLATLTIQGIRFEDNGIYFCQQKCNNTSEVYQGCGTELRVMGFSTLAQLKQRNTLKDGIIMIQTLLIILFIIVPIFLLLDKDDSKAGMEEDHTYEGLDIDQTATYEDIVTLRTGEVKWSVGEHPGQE
Binder,"cell viability IC50 (Cell Titer Glo, 72 h), JEKO cells [pM]",also measured
ATB 466 (Fc fusion) EVQLVESGGGLVQPGGSLRLSCAASGYTFSSYWIEWVRQAPGKGLEWIGEILPGGGDTNYNEIFKGRATFSADTSKNTAYLQMNSLRAEDTAVYYCTRRVPIRLDYWGQGTLVTVSSGGGGSGGGGSGGGGSDIQLTQSPSSLSASVGDRVTITCKASQSVDYEGDSFLNWYQQKPGKAPKLLIYAASNLESGVPSRFSGSGSGTDFTLTISSLQPEDFATYYCQQSNEDPLTFGQGTKVEIKAS[human IgG1 Fc and a few adjoining residues not written out]RRRKRSLDTSADTVICEPHQDTETGKIKKFKVDVGVAEDQAKKAGLTTGKSGDPHRYMNGDKINFGIHNCDKEGAILWEYPIYWVGKKAEWMKDEKTDRQPGGPTPIRVVYANNNGNIVYCGVMTHAVVKSNNQGEKFFLKCT,0.533,–
ATB 467 (Fc fusion) EVQLVESGGGLVQPGGSLRLSCAASGYTFSSYWIEWVRQAPGKGLEWIGEILPGGGDTNYNEIFKGRATFSADTSKNTAYLQMNSLRAEDTAVYYCTRRVPIRLDYWGQGTLVTVSSGGGGSGGGGSGGGGSDIQLTQSPSSLSASVGDRVTITCKASQSVDYEGDSFLNWYQQKPGKAPKLLIYAASNLESGVPSRFSGSGSGTDFTLTISSLQPEDFATYYCQQSNEDPLTFGQGTKVEIKAS[human IgG1 Fc and a few adjoining residues not written out]RHRQPRGWEQLADTVICEPHQDTETGKIKKFKVDVGVAEDQAKKAGLTTGKSGDPHRYMNGDKINFGIHNCDKEGAILWEYPIYWVGKKAEWMKDEKTDRQPGGPTPIRVVYANNNGNIVYCGVMTHAVVKSNNQGEKFFLKCT,86,–
ATB 452 (antibody) heavy: EVQLVESGGGLVQPGGSLRLSCAASGYTFSSYWIEWVRQAPGKGLEWIGEILPGGGDTNYNEIFKGRATFSADTSKNTAYLQMNSLRAEDTAVYYCTRRVPIRLDYWGQGTLVTVSS[human IgG1 constant region not written out]GGSADTVICEPHQDTETGKIKKFKVDVGVAEDQAKKAGLTTGKSGDPHRYMNGDKINFGIHNCDKEGAILWEYPIYWVGKKAEWMKDEKTDRQPGGPTPIRVVYANNNGNIVYCGVMTHAVVKSNNQGEKFFLKCT light: DIQLTQSPSSLSASVGDRVTITCKASQSVDYEGDSFLNWYQQKPGKAPKLLIYAASNLESGVPSRFSGSGSGTDFTLTISSLQPEDFATYYCQQSNEDPLTFGQGTKVEIKRTVAAPSVFIFPPSDEQLKSGTASVVCLLNNFYPREAKVQWKVDNALQSGNSQESVTEQDSKDSTYSLSSTLTLSKADYEKHKVYACEVTHQGLSSPVTKSFNRGEC,–,"cell viability IC50 (Cell Titer Glo, 72 h), BJAB cells (FIG. 15): 0.0333 pM; cell viability IC50 (Cell Titer Glo, 72 h), JEKO cells (FIG. 16): 15.1 pM; cell viability IC50 (Cell Titer Glo, 72 h), OCY-LY3 cells (FIG. 18): 58.7 pM; fold better efficacy than marketed antibody drug conjugate (Polatuzumab), viability assay on BJAB cells (FIG. 15): 3000 fold; fold better efficacy than marketed antibody drug conjugate, viability assay on JEKO cells (FIG. 16): 4.5 fold"
ATB 507 (antibody) heavy: EVQLVESGGGLVQPGGSLRLSCAASGYTFSSYWIEWVRQAPGKGLEWIGEILPGGGDTNYNEIFKGRATFSADTSKNTAYLQMNSLRAEDTAVYYCTRRVPIRLDYWGQGTLVTVSS[human IgG1 constant region not written out]RRRKRSLDTSADTVICEPHQDTETGKIKKFKVDVGVAEDQAKKAGLTTGKSGDPHRYMNGDKINFGIHNCDKEGAILWEYPIYWVGKKAEWMKDEKTDRQPGGPTPIRVVYANNNGNIVYCGVMTHAVVKSNNQGEKFFLKCT light: DIQLTQSPSSLSASVGDRVTITCKASQSVDYEGDSFLNWYQQKPGKAPKLLIYAASNLESGVPSRFSGSGSGTDFTLTISSLQPEDFATYYCQQSNEDPLTFGQGTKVEIKRTVAAPSVFIFPPSDEQLKSGTASVVCLLNNFYPREAKVQWKVDNALQSGNSQESVTEQDSKDSTYSLSSTLTLSKADYEKHKVYACEVTHQGLSSPVTKSFNRGEC,25.8,–
ATB 509 (antibody) heavy: EVQLVESGGGLVQPGGSLRLSCAASGYTFSSYWIEWVRQAPGKGLEWIGEILPGGGDTNYNEIFKGRATFSADTSKNTAYLQMNSLRAEDTAVYYCTRRVPIRLDYWGQGTLVTVSS[human IgG1 constant region not written out] light: DIQLTQSPSSLSASVGDRVTITCKASQSVDYEGDSFLNWYQQKPGKAPKLLIYAASNLESGVPSRFSGSGSGTDFTLTISSLQPEDFATYYCQQSNEDPLTFGQGTKVEIKRTVAAPSVFIFPPSDEQLKSGTASVVCLLNNFYPREAKVQWKVDNALQSGNSQESVTEQDSKDSTYSLSSTLTLSKADYEKHKVYACEVTHQGLSSPVTKSFNRGECGGGGSADTVICEPHQDTETGKIKKFKVDVGVAEDQAKKAGLTTGKSGDPHRYMNGDKINFGIHNCDKEGAILWEYPIYWVGKKAEWMKDEKTDRQPGGPTPIRVVYANNNGNIVYCGVMTHAVVKSNNQGEKFFLKCT,28.7,–
ATB 536 (antibody) heavy: EVQLVESGGGLVQPGGSLRLSCAASGYTFSSYWIEWVRQAPGKGLEWIGEILPGGGDTNYNEIFKGRATFSADTSKNTAYLQMNSLRAEDTAVYYCTRRVPIRLDYWGQGTLVTVSS[human IgG1 constant region not written out]GGSADTVICEPHQDTETGKIKKFKVDVGVAEDQAKKAGLTTGKSGDPHRYMNGDKINFGIHNCDKEGAILWEYPIYWVGKKAEWMKDEKTDRQPGGPTPIRVVYANNNGNIVYCGVMTHAVVKSNNQGEKFFLKCT light: DIQLTQSPSSLSASVGDRVTITCKASQSVDYEGDSFLNWYQQKPGKAPKLLIYAASNLESGVPSRFSGSGSGTDFTLTISSLQPEDFATYYCQQSNEDPLTFGQGTKVEIKRTVAAPSVFIFPPSDEQLKSGTASVVCLLNNFYPREAKVQWKVDNALQSGNSQESVTEQDSKDSTYSLSSTLTLSKADYEKHKVYACEVTHQGLSSPVTKSFNRGECGGGGSADTVICEPHQDTETGKIKKFKVDVGVAEDQAKKAGLTTGKSGDPHRYMNGDKINFGIHNCDKEGAILWEYPIYWVGKKAEWMKDEKTDRQPGGPTPIRVVYANNNGNIVYCGVMTHAVVKSNNQGEKFFLKCT,37.4,–
ATB 495 (Fc fusion) EVQLVESGGGLVQPGGSLRLSCAASGYTFSSYWIEWVRQAPGKGLEWIGEILPGGGDTNYNEIFKGRATFSADTSKNTAYLQMNSLRAEDTAVYYCTRRVPIRLDYWGQGTLVTVSSGGGGSGGGGSGGGGSDIQLTQSPSSLSASVGDRVTITCKASQSVDYEGDSFLNWYQQKPGKAPKLLIYAASNLESGVPSRFSGSGSGTDFTLTISSLQPEDFATYYCQQSNEDPLTFGQGTKVEIKAS[human IgG1 Fc and a few adjoining residues not written out]GGSADTVICEPHQDTETGKIKKFKVDVGVAEDQAKKAGLITGKSGDPHRYMNGDKINFGIHNCDKEGAILWEYPIYWVGKKAEWMKDEKTDRQPGGPTPIRVVYANNNGNIVYCGVMTHAVVKSNNQGEKFFLKCT,326,–
ATB 496 (Fc fusion) EVQLVESGGGLVQPGGSLRLSCAASGYTFSSYWIEWVRQAPGKGLEWIGEILPGGGDTNYNEIFKGRATFSADTSKNTAYLQMNSLRAEDTAVYYCTRRVPIRLDYWGQGTLVTVSSGGGGSGGGGSGGGGSDIQLTQSPSSLSASVGDRVTITCKASQSVDYEGDSFLNWYQQKPGKAPKLLIYAASNLESGVPSRFSGSGSGTDFTLTISSLQPEDFATYYCQQSNEDPLTFGQGTKVEIKAS[human IgG1 Fc and a few adjoining residues not written out]GGSADTVICEPRQDTETGKIKKFKVDVGVAEDQAKKAGLITGKSGDPHRYMNGDKINFGIHNCDKEGAILWEYPIYWVGKKAEWMKDEKTDRQPGGPTPIRVVYANNNGNIVYCGVMTHAVVKSNNQGEKFFLKCT,532,–
ATB 497 (Fc fusion) EVQLVESGGGLVQPGGSLRLSCAASGYTFSSYWIEWVRQAPGKGLEWIGEILPGGGDTNYNEIFKGRATFSADTSKNTAYLQMNSLRAEDTAVYYCTRRVPIRLDYWGQGTLVTVSSGGGGSGGGGSGGGGSDIQLTQSPSSLSASVGDRVTITCKASQSVDYEGDSFLNWYQQKPGKAPKLLIYAASNLESGVPSRFSGSGSGTDFTLTISSLQPEDFATYYCQQSNEDPLTFGQGTKVEIKAS[human IgG1 Fc and a few adjoining residues not written out]GGSADTVICEPHQDTETGKIKKFTVDVGVAEDQAKKAGLTTGKSGDPHRYMNGDNINFGIHNCDKEGAILWEYPIYWVGKKAEWKKDEKTDRQPGGPTPLRVVYANNNGNIVYCGVMTHAVVKSNNQGEKFFLKCT,138,–
ATB 96 (Fc fusion) EVQLVESGGGLVQPGGSLRLSCAASGYTFSSYWIEWVRQAPGKGLEWIGEILPGGGDTNYNEIFKGRATFSADTSKNTAYLQMNSLRAEDTAVYYCTRRVPIRLDYWGQGTLVTVSSGGGGSGGGGSGGGGSDIQLTQSPSSLSASVGDRVTITCKASQSVDYEGDSFLNWYQQKPGKAPKLLIYAASNLESGVPSRFSGSGSGTDFTLTISSLQPEDFATYYCQQSNEDPLTFGQGTKVEIKAS[human IgG1 Fc not written out],–,"cell viability IC50 (Cell Titer Glo, 72 h), WSU-DLCL2 cells: 9040 pM"
ATB 222 (Fc fusion) EVQLVESGGGLVQPGGSLRLSCAASGYTFSSYWIEWVRQAPGKGLEWIGEILPGGGDTNYNEIFKGRATFSADTSKNTAYLQMNSLRAEDTAVYYCTRRVPIRLDYWGQGTLVTVSSGGGGSGGGGSGGGGSDIQLTQSPSSLSASVGDRVTITCKASQSVDYEGDSFLNWYQQKPGKAPKLLIYAASNLESGVPSRFSGSGSGTDFTLTISSLQPEDFATYYCQQSNEDPLTFGQGTKVEIKAS[human IgG1 Fc and a few adjoining residues not written out]RRRKRSLDTSAVTWTCLNDQKNPKTNKYETKRLLYNQNKAESNSHHAPLSDGKTGSSYPHWFTNGYDGDGKLPKGRTPIKFGKSDCDRPPKHSKDGNGKTDHYLLEFPTFPDGHDYKFDSKKPKENPGPARVIYTYPNKVFCGIIAHTKENQGELKLCSH,–,"cell viability IC50 (Cell Titer Glo, 72 h), BJAB cells: 0.058 pM"
